Test results: the supplement of paper PMC8728848
The list shows a part of the results.

How the values were obtained:
Test in all cases: glycan array binding signal (z-score within array); higher = stronger binding
Settings in all cases: glycan notation: IUPAC condensed, linker removed
[1] = biological target: GlcNAc(a1-4)Gal(b1-4)GlcNAc
Method in brief: (§1)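 Columns mapping to the same glycan were averaged after glycan names were converted to IUPAC-condensed notation. The data come from 3228 arrays in the Consortium for Functional Glycomics database, limited to those with an available protein sequence. Binding is reported as a within-array Z-score averaged across arrays of one protein sequence and across linkers.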

[2] = biological target: GlcNAc(a1-4)Gal(b1-4)GlcNAc(b1-3)Gal(b1-4)Glc
Method in brief: as §1

[3] = biological target: GlcNAc(a1-4)Gal(b1-4)GlcNAc(b1-3)Gal(b1-4)GlcNAc
Method in brief: as §1

[4] = biological target: GlcNAc(a1-4)Gal(b1-4)GlcNAc(b1-3)Gal(b1-4)GlcNAc(b1-3)Gal(b1-4)GlcNAc
Method in brief: as §1

[5] = biological target: GlcNAc(a1-4)Gal(b1-4)GlcNAc(b1-3)Gal(b1-4)[Fuc(a1-3)]GlcNAc(b1-3)Gal(b1-4)[Fuc(a1-3)]GlcNAc
Method in brief: as §1

[6] = biological target: GlcNAc(a1-6)Gal(b1-4)GlcNAc
Method in brief: as §1

[7] = biological target: GlcNAc(b1-2)Gal(b1-3)GalNAc
Method in brief: as §1

[8] = biological target: GlcNAc(b1-2)Man(a1-3)[GlcNAc(b1-2)Man(a1-6)]Man(b1-4)GlcNAc(b1-4)GlcNAc
Method in brief: as §1

[9] = biological target: GlcNAc(b1-2)Man(a1-3)[GlcNAc(b1-2)Man(a1-6)]Man(b1-4)GlcNAc(b1-4)[Fuc(a1-6)]GlcNAc
Method in brief: as §1

[10] = biological target: GlcNAc(b1-2)Man(a1-3)[GlcNAc(b1-4)][GlcNAc(b1-2)Man(a1-6)]Man(b1-4)GlcNAc(b1-4)GlcNAc
Method in brief: as §1

[11] = biological target: GlcNAc(b1-2)[GlcNAc(b1-4)]Man(a1-3)[GlcNAc(b1-2)Man(a1-6)]Man(b1-4)GlcNAc(b1-4)GlcNAc
Method in brief: as §1

[12] = biological target: GlcNAc(b1-2)[GlcNAc(b1-4)]Man(a1-3)[GlcNAc(b1-4)][GlcNAc(b1-2)Man(a1-6)]Man(b1-4)GlcNAc(b1-4)GlcNAc
Method in brief: as §1

[13] = biological target: GlcNAc(b1-2)[GlcNAc(b1-4)]Man(a1-3)[GlcNAc(b1-4)][GlcNAc(b1-2)[GlcNAc(b1-6)]Man(a1-6)]Man(b1-4)GlcNAc(b1-4)GlcNAc
Method in brief: as §1

[14] = biological target: GlcNAc(b1-2)[GlcNAc(b1-4)]Man(a1-3)[GlcNAc(b1-4)][GlcNAc(b1-2)[GlcNAc(b1-6)]Man(a1-6)]Man(b1-4)GlcNAc(b1-4)[Fuc(a1-6)]GlcNAc
Method in brief: as §1

[15] = biological target: GlcNAc(b1-2)[GlcNAc(b1-6)]Man(a1-6)[GlcNAc(b1-2)Man(a1-3)]Man(b1-4)GlcNAc(b1-4)GlcNAc
Method in brief: as §1

[16] = biological target: GlcNAc(b1-2)[GlcNAc(b1-6)]Man(a1-6)[GlcNAc(b1-2)Man(a1-3)]Man(b1-4)GlcNAc(b1-4)[Fuc(a1-6)]GlcNAc
Method in brief: as §1

[17] = biological target: GlcNAc(b1-2)[GlcNAc(b1-6)]Man(a1-6)[GlcNAc(b1-2)Man(a1-3)][GlcNAc(b1-4)]Man(b1-4)GlcNAc(b1-4)GlcNAc
Method in brief: as §1

GlcNAc(b1-3)Gal = biological target: GlcNAc(b1-3)Gal
Method in brief: as §1

[18] = biological target: GlcNAc(b1-3)Gal(b1-3)GalNAc
Method in brief: as §1

GlcNAc(b1-3)Gal(b1-4)Glc = biological target: GlcNAc(b1-3)Gal(b1-4)Glc
Method in brief: as §1

[19] = biological target: GlcNAc(b1-3)Gal(b1-4)GlcNAc
Method in brief: as §1

[20] = biological target: GlcNAc(b1-3)Gal(b1-4)GlcNAc(b1-3)Gal(b1-4)GlcNAc
Method in brief: as §1

GlcNAc(b1-3)GalNAc = biological target: GlcNAc(b1-3)GalNAc
Method in brief: as §1

GlcNAc(b1-3)Man = biological target: GlcNAc(b1-3)Man
Method in brief: as §1

[21] = biological target: GlcNAc(b1-3)[GlcNAc(b1-4)][GlcNAc(b1-6)]GlcNAc
Method in brief: as §1

[22] = biological target: GlcNAc(b1-3)[GlcNAc(b1-6)]Gal(b1-4)GlcNAc
Method in brief: as §1

[23] = biological target: GlcNAc(b1-3)[GlcNAc(b1-6)]GalNAc
Method in brief: as §1

[24] = biological target: GlcNAc(b1-4)Gal(b1-4)GlcNAc
Method in brief: as §1

GlcNAc(b1-4)GlcNAc = biological target: GlcNAc(b1-4)GlcNAc
Method in brief: as §1

[25] = biological target: GlcNAc(b1-4)GlcNAc(b1-4)GlcNAc
Method in brief: as §1

[26] = biological target: GlcNAc(b1-4)GlcNAc(b1-4)GlcNAc(b1-4)GlcNAc(b1-4)GlcNAc
Method in brief: as §1

[27] = biological target: GlcNAc(b1-4)GlcNAc(b1-4)GlcNAc(b1-4)GlcNAc(b1-4)GlcNAc(b1-4)GlcNAc
Method in brief: as §1

[28] = biological target: GlcNAc(b1-4)[GlcNAc(b1-6)]GalNAc
Method in brief: as §1

[29] = biological target: GlcNAc(b1-6)Gal(b1-4)GlcNAc
Method in brief: as §1

GlcNAc(b1-6)GalNAc = biological target: GlcNAc(b1-6)GalNAc
Method in brief: as §1

GlcNAc3Prop(b1-4)GlcNAc = biological target: GlcNAc3Prop(b1-4)GlcNAc
Method in brief: as §1

[30] = biological target: GlcNAc6S(b1-3)Gal(b1-4)GlcNAc
Method in brief: as §1

Kdn(a2-3)Gal(b1-3)GalNAc = biological target: Kdn(a2-3)Gal(b1-3)GalNAc
Method in brief: as §1

Kdn(a2-3)Gal(b1-3)GlcNAc = biological target: Kdn(a2-3)Gal(b1-3)GlcNAc
Method in brief: as §1

Kdn(a2-3)Gal(b1-4)Glc = biological target: Kdn(a2-3)Gal(b1-4)Glc
Method in brief: as §1

Kdn(a2-3)Gal(b1-4)GlcNAc = biological target: Kdn(a2-3)Gal(b1-4)GlcNAc
Method in brief: as §1

[31] = biological target: Kdn(a2-3)Gal(b1-4)[Fuc(a1-3)]GlcNAc
Method in brief: as §1

Kdn(a2-6)Gal(b1-4)GlcNAc = biological target: Kdn(a2-6)Gal(b1-4)GlcNAc
Method in brief: as §1

[32] = biological target: Man(a1-2)Man(a1-2)Man(a1-3)Man
Method in brief: as §1

[33] = biological target: Man(a1-2)Man(a1-2)Man(a1-6)[Man(a1-3)]Man
Method in brief: as §1

B1: Gal 8 (Homo sapiens), O00214_1 (protein)
chain: MMLSLNNLQNIIYNPVIPFVGTIPDQLDPGTLIVIRGHVPSDADRFQVDLQNGSSMKPRADVAFHFNPRFKRAGCIVCNTLINEKWGREEITYDTPFKREKSFEIVIMVLKDKFQVAVNGKHTLLYGHRIGPEKIDTLGIYGKVNIHSIGFSFSSDLQSTQASSLELTEISRENVPKSGTPQLRLPFAARLNTPMGPGRTVVVKGEVNANAKSFNVDLLAGKSKDIALHLNPRLNIKAFVRNSFLQESWGEEERNITSFPFSPGMYFEMIIYCDVREFKVAVNGVHSLEYKHRFKELSSIDTLEINGDIHLLEVRSW
glycan array binding signal (z-score) [1]: -0.198 | glycan array binding signal (z-score) [2]: 1.65 | glycan array binding signal (z-score) [3]: 1.24 | glycan array binding signal (z-score) [4]: 0.834 | glycan array binding signal (z-score) [5]: -0.013 | glycan array binding signal (z-score) [6]: -0.204 | glycan array binding signal (z-score) [7]: -0.197 | glycan array binding signal (z-score) [8]: -0.255 | glycan array binding signal (z-score) [9]: -0.146 | glycan array binding signal (z-score) [10]: -0.303 | glycan array binding signal (z-score) [11]: -0.261 | glycan array binding signal (z-score) [12]: -0.217 | glycan array binding signal (z-score) [13]: -0.271 | glycan array binding signal (z-score) [14]: -0.255 | glycan array binding signal (z-score) [15]: -0.25 | glycan array binding signal (z-score) [16]: -0.13 | glycan array binding signal (z-score) [17]: -0.279 | glycan array binding signal (z-score) (GlcNAc(b1-3)Gal): -0.222 | glycan array binding signal (z-score) [18]: -0.138 | glycan array binding signal (z-score) (GlcNAc(b1-3)Gal(b1-4)Glc): -0.156 | glycan array binding signal (z-score) [19]: -0.187 | glycan array binding signal (z-score) [20]: 0.739 | glycan array binding signal (z-score) (GlcNAc(b1-3)GalNAc): -0.261 | glycan array binding signal (z-score) (GlcNAc(b1-3)Man): 0.21 | glycan array binding signal (z-score) [21]: -0.227 | glycan array binding signal (z-score) [22]: -0.208 | glycan array binding signal (z-score) [23]: -0.228 | glycan array binding signal (z-score) [24]: -0.28 | glycan array binding signal (z-score) (GlcNAc(b1-4)GlcNAc): -0.187 | glycan array binding signal (z-score) [25]: -0.211 | glycan array binding signal (z-score) [26]: -0.19 | glycan array binding signal (z-score) [27]: -0.209 | glycan array binding signal (z-score) [28]: -0.246 | glycan array binding signal (z-score) [29]: -0.265 | glycan array binding signal (z-score) (GlcNAc(b1-6)GalNAc): -0.225 | glycan array binding signal (z-score) (GlcNAc3Prop(b1-4)GlcNAc): -0.231 | glycan array binding signal (z-score) [30]: -0.585 | glycan array binding signal (z-score) (Kdn(a2-3)Gal(b1-3)GalNAc): -0.154 | glycan array binding signal (z-score) (Kdn(a2-3)Gal(b1-3)GlcNAc): 0.062 | glycan array binding signal (z-score) (Kdn(a2-3)Gal(b1-4)Glc): -0.652 | glycan array binding signal (z-score) (Kdn(a2-3)Gal(b1-4)GlcNAc): -0.205 | glycan array binding signal (z-score) [31]: -0.199 | glycan array binding signal (z-score) (Kdn(a2-6)Gal(b1-4)GlcNAc): -0.219 | glycan array binding signal (z-score) [32]: -0.273 | glycan array binding signal (z-score) [33]: -0.223
